# Among all 310,000 compounds or so, about 14,000 (4.5%) showed an effect of 50% or more. The effect is printed as a negative number. The list shows a part of the results.
# Molecular target: human ether-à-go-go-related gene (hERG) potassium channel (human, UniProt Q12809)
# Assay: primary screen, population patch clamp on CHO cells stably expressing hERG
# 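Also: peak tail current of the secondary pulse compared with the same well before compound.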
# human ether-à-go-go-related gene (hERG) potassium channel, sequence (Q12809 whole entry, looked up): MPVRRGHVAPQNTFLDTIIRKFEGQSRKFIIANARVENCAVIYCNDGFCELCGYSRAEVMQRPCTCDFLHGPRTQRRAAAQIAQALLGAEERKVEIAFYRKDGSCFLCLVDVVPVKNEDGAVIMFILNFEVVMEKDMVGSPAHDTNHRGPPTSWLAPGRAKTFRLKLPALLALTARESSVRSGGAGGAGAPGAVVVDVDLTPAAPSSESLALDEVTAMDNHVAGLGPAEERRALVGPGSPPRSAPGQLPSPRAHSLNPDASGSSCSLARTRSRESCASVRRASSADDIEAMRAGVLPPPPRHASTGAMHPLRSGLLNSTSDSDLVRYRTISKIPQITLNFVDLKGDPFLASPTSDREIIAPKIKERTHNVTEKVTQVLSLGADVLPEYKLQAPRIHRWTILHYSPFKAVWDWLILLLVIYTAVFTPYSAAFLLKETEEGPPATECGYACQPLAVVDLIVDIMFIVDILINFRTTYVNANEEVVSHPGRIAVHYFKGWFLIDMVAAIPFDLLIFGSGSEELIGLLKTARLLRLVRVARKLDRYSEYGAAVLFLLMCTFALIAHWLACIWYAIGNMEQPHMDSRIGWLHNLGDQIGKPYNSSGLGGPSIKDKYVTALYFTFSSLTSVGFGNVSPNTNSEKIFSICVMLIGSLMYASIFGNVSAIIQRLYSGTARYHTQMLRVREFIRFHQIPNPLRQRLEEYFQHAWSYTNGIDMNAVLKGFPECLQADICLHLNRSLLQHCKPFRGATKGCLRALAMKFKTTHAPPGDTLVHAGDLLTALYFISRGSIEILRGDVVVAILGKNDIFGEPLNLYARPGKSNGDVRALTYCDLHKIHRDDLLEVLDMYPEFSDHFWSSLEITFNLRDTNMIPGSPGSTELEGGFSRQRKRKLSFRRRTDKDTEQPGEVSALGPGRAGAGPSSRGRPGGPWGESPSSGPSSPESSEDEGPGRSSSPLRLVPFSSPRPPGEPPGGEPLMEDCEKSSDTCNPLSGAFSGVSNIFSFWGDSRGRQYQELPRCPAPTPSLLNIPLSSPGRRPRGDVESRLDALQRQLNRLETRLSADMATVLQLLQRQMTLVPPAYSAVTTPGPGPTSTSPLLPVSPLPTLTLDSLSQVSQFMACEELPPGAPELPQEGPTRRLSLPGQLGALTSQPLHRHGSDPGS
row,Structure (SMILES),"hERG current change (%, negative = inhibition) at 10uM"
1,Cc1nc(NCCCN2CCOCC2)c2oc3ccccc3c2n1.Cl,-15.5%
2,O=C(CCCOc1ccccc1)Nc1ccc(S(=O)(=O)Nc2ccccn2)cc1,20.6%
3,C=CCNC(=S)Nc1ccc(N2CCOCC2)c(S(=O)(=O)Nc2ccccc2Cl)c1,-12.5%
4,Cc1[nH]c2ccccc2c1C(O)CN1CCC2(CC1)OCCO2 (centres unmarked),-44.1%
5,CCNC(=O)C1CC(=O)OC12CCCCC2 (centres unmarked),-0.628%
6,CCOC(=O)C1=C(c2ccccc2)NC(=S)NC1c1cc([N+](=O)[O-])ccc1OC (centres unmarked),2.63%
7,Cc1ccc(C(=O)Nc2scc(-c3ccccc3)c2C(=O)O)o1,15.1%
8,COc1ccc(O)c(C(=O)c2cnn(S(=O)(=O)c3ccc(C)cc3)c2)c1,4.18%
9,COc1ccc(CNC(=O)C2CCC(CNS(=O)(=O)c3ccc(C)cc3)CC2)cc1 (centres unmarked),16.4%
10,CCC(C)c1ccccc1O (centres unmarked),13.2%
11,COc1ccc(Br)cc1CN(C)C(C)C(=O)Nc1cccc(C(C)=O)c1 (centres unmarked),-13.3%
12,CNC(=S)N1CCn2cccc2C1c1ccc(F)cc1 (centres unmarked),-10.1%
13,COc1ccc(CC2(CO)CCN(Cc3ccc4nsnc4c3)CC2)cc1,-58.9%
14,O=C(N/N=C/c1cccc2ccccc12)c1ccccc1Cl,8.63%
15,COC(=O)c1[nH]cnc1C(=O)c1ccccc1,9.97%
16,CCNc1cccc2c1C(=O)N(C)C2=O,48.1%
17,NC(=O)N/N=C1\CCS(=O)(=O)c2ccc(F)cc21,25.6%
18,COC(=O)c1ccc(OCC(O)CN2CCN(C(=O)c3ccco3)CC2)c(OC)c1 (centres unmarked),-15.5%
19,COC(=O)c1ccc(SCC(=O)N2CCC(C)CC2)c([N+](=O)[O-])c1,-4.54%
20,CC(=O)Nc1ccc(OCC(=O)NCc2ccc(C)cc2)cc1,5.29%
21,COc1ccc(OC(=O)c2ccc(OC)c(S(=O)(=O)N3CCOCC3)c2)cc1,-26.3%
22,CCOCCSc1nc2c(c(-c3cccs3)c1C#N)CC/C2=C/c1cccs1,12.9%

row,Structure (SMILES),"hERG current change (%, negative = inhibition) at 10uM"
1,CCOc1ccc(S(=O)(=O)n2nc(C)cc2C)cc1,7.05%
2,O=C1CN=C(c2cc([N+](=O)[O-])ccc2Cl)c2cc([N+](=O)[O-])ccc2N1,-14.4%
3,CCC(C)[C@@H](C(=O)Nc1ccc2c(c1)OCO2)N1Cc2ccccc2C1=O (some centres unmarked),-20.9%
4,Cc1ccc(S(=O)(=O)N(C)CC(=O)O/N=C(\N)c2cccc([N+](=O)[O-])c2)cc1,-66.8%
5,CN(CCCNC(=O)c1cc2c(Cl)nc3ccccc3c2s1)Cc1ccccc1,-44.3%
6,Cc1cc(Br)cc(C)c1OCCCCN(C)C.O=C(O)C(=O)O,-54.4%
7,COC(=O)c1cc(S(=O)(=O)NC2CCC(C)CC2)cn1C (centres unmarked),11.4%
8,CCOc1cc2c(cc1OCC)C(c1ccccc1)N(c1ccccc1)C(=O)C2 (centres unmarked),-6.2%
9,O=C(N/N=C/C1C(c2ccccc2)C1(Cl)Cl)c1cccc(Br)c1 (centres unmarked),11%
10,CC(=O)c1c(C)[nH]c(C(=O)CSc2nnc(-c3ccccc3)o2)c1C,4.71%
11,CCN1CCc2c(sc3c2c(NCc2ccco2)nc2nnnn23)C1,-73.6%
12,CCCn1c(SCC(=O)N2CCc3ccccc32)nnc1-c1ccco1,2.09%
13,Cc1ccc(NC(=S)N(CCN(C)C)Cc2cccs2)cc1C,-46.7%
14,Cn1nccc1C(=O)N1CCC(Cc2ccccc2)CC1,-9.69%
15,CCOc1cccc(N2C(=O)CC(N3CCC(C(N)=O)(N4CCCCC4)CC3)C2=O)c1 (centres unmarked),9.44%
16,O=C(Nc1nnc(-c2ccccc2)o1)Nc1ccc(F)cc1F,8.52%
17,O=C(O)c1ccc(N2C(=O)C3C4c5ccccc5C(Br)(c5ccccc54)C3C2=O)cc1 (centres unmarked),18.8%
18,CC(C)(C)NC(=O)CN(C(=O)CCC(=O)Nc1nccs1)c1cccc(C(F)(F)F)c1,-16.5%
19,COCc1c(CCl)cnc(C)c1O,28.8%
20,O=C(NCc1ccccn1)c1cccc(S(=O)(=O)Nc2ccc(SC(F)F)cc2)c1,-36.9%
21,COc1cccc2c1C(CO)N1C(C#N)C3CC(C(=O)O)C(C1C2)N3C (centres unmarked),12.3%
22,O=C1C/C(=C\c2c(F)cccc2Cl)N2CCC1CC2,-1.93%

row,Structure (SMILES),"hERG current change (%, negative = inhibition) at 10uM"
1,COc1ccc(CC(=O)N2CCC(c3ccccc3)C2)cc1 (centres unmarked),-10.1%
2,Cc1sc(NC(=O)CCl)c(C(=O)c2ccccc2)c1C,21.5%
3,CCN(CC)S(=O)(=O)c1cc(C(=O)Nc2cc(C)on2)c(Cl)cc1Cl,12.3%
4,CCN(CC)CCNC(=O)CNC(=O)c1nn(-c2ccc(OC)c(OC)c2)c(=O)c2ccccc12,11%
5,Cc1ccc(NC(=O)C2CCN(S(=O)(=O)c3cccc4nonc34)CC2)nc1,5.58%
6,COc1cc(C(=O)NCc2cccnc2)ccc1OCC(=O)Nc1cccc(C(F)(F)F)c1,3.13%
7,N#C/C(=C\c1cc([N+](=O)[O-])c(N2CCOCC2)cc1N1CCOCC1)c1nc2ccccc2[nH]1,-45.5%
8,O=C(c1cc([N+](=O)[O-])ccc1Cl)N1CCN(c2ccccn2)CC1,-18.8%
9,Cn1cc(S(=O)(=O)N2CCc3ccccc3C2)c(=O)n(C)c1=O,-5.18%
10,COc1ccc2c(c1OC)C(=O)N(c1nccs1)C2,2.64%
11,COc1ccc(C2/C(=C(/O)c3ccc4c(c3)CC(C)O4)C(=O)C(=O)N2CCCN2CCOCC2)cc1OC (centres unmarked),1.5%
12,COc1ccccc1C(=O)COC(=O)c1nc(Cl)ccc1Cl,-0.91%
13,COc1cccc(NC(=O)C2CCN(c3cnccn3)CC2)c1,3.59%
14,O=C(Nc1nc(-c2ccccc2)c(-c2ccccc2)s1)c1ccc(S(=O)(=O)N2CCCC2)cc1,-1.56%
15,CN(c1ccccc1)S(=O)(=O)c1nnc(NC(=O)c2ccco2)s1,17.6%
16,CCOC(=O)C1CCCN(C(=O)c2sc3nc(-c4ccccc4)cn3c2C)C1 (centres unmarked),-59.8%
17,COc1ccc(/C=N/n2c(C)nc3ccccc3c2=O)cc1,10.1%
18,O=C(Nc1cccc(S(=O)(=O)NC2=NCCC2)c1)C1CC(=O)N(c2ccc3c(c2)OCCO3)C1 (centres unmarked),23.2%
19,COc1cccc(-c2noc(-c3ccoc3C)n2)c1,35.8%
20,O=C(Nc1nc(-c2ccccc2)c(C(=O)c2ccccc2)s1)c1ccc(S(=O)(=O)N2CCCCC2)cc1,1.3%
21,COc1ccc(C2=NOC(Cn3nc(C(=O)NCc4ccc(OC(F)(F)F)cc4)cc3-c3ccccc3)C2)cc1 (centres unmarked),-3.95%
22,O=C(CCNS(=O)(=O)c1cccs1)NCc1ccco1,1.96%

row,Structure (SMILES),"hERG current change (%, negative = inhibition) at 10uM"
1,NC(=O)c1cc([N+](=O)[O-])c(Cl)cc1NCc1ccncc1,-31.9%
2,CC(NCCC1(Cc2ccccc2Cl)CCOC(C)(C)C1)c1cccs1 (centres unmarked),-23.3%
3,O=C(Nc1ccc(Cc2nc3ccccc3s2)cc1)c1ccncc1,-25.1%
4,CCNC(=O)Nc1cc(S(=O)(=O)Nc2ccc(OC)cc2)ccc1N1CCOCC1,-9.8%
5,CCn1c(SCC(=O)N/N=C/C(C)=C\c2ccco2)nnc1-c1ccccc1,-39%
6,CCC(C)NS(=O)(=O)c1ccc(NC(=O)c2c(-c3ccccc3)noc2C)cc1 (centres unmarked),8.46%
7,CCCn1nc(C(=O)Nc2cc(C(=O)OC)ccc2C)c2ccccc2c1=O,-4.93%
8,CCOc1ccc(-c2csc3ncn(-c4ccc(OC)cc4)c(=O)c23)cc1,14.9%
9,O=[N+]([O-])c1ccc(/C=C/c2ccc3cccc([N+](=O)[O-])c3n2)cc1,17.4%
10,CCN(CC)CCN(C(=O)c1ccc(S(=O)(=O)N(CC)c2ccccc2)cc1)c1nc2c(OC)ccc(OC)c2s1.Cl,-27%
11,CCCc1cc(=O)oc2cc(OCC(=O)Nc3cc(C)on3)ccc12,5.46%
12,CCCCCCCCCCS(=O)(=O)N/N=C/c1ccc(O)cc1,21.2%
13,CCc1c(C)nc2ncnn2c1N1CCC(C(=O)Nc2ccc(C)cc2)CC1,-55.9%
14,CCc1c(C)c2ccc(O)c(CN(C)C)c2oc1=O,5.38%
15,Cc1cc(=O)c2c(C)ccc(C)c2[nH]1,17.1%
16,CN(Cc1ccccc1)c1nc2c(c(=O)[nH]c(=O)n2C)n1CCCSc1ncccn1,-25.8%
17,CC(OC(=O)c1ccco1)C(=O)Nc1ccc(Cl)cn1 (centres unmarked),-11.9%
18,CC(C)(Oc1ccc(Cl)cc1)C(=O)Nc1ncccn1,-3%
19,Cc1n[nH]c(C)c1S(=O)(=O)N1CCCC(C(=O)Nc2nccs2)C1 (centres unmarked),-1.97%
20,CCOc1ccc(N(CC(=O)NC2CCCCC2)S(=O)(=O)c2ccc(C)cc2)cc1,8.67%
